Reference: PMC4336329 (PLoS ONE, 2015)
In all, about 310,000 compounds went through this assay and about 2,200 (0.71%) showed an effect of 50% or more. Effects have a minus sign here. The list shows a part of the results.

What follows are compounds tested against human ether-à-go-go-related gene (hERG) potassium channel (human, UniProt Q12809) (assay: primary screen, population patch clamp on CHO cells stably expressing hERG).
Chain of human ether-à-go-go-related gene (hERG) potassium channel (Q12809 whole entry, looked up): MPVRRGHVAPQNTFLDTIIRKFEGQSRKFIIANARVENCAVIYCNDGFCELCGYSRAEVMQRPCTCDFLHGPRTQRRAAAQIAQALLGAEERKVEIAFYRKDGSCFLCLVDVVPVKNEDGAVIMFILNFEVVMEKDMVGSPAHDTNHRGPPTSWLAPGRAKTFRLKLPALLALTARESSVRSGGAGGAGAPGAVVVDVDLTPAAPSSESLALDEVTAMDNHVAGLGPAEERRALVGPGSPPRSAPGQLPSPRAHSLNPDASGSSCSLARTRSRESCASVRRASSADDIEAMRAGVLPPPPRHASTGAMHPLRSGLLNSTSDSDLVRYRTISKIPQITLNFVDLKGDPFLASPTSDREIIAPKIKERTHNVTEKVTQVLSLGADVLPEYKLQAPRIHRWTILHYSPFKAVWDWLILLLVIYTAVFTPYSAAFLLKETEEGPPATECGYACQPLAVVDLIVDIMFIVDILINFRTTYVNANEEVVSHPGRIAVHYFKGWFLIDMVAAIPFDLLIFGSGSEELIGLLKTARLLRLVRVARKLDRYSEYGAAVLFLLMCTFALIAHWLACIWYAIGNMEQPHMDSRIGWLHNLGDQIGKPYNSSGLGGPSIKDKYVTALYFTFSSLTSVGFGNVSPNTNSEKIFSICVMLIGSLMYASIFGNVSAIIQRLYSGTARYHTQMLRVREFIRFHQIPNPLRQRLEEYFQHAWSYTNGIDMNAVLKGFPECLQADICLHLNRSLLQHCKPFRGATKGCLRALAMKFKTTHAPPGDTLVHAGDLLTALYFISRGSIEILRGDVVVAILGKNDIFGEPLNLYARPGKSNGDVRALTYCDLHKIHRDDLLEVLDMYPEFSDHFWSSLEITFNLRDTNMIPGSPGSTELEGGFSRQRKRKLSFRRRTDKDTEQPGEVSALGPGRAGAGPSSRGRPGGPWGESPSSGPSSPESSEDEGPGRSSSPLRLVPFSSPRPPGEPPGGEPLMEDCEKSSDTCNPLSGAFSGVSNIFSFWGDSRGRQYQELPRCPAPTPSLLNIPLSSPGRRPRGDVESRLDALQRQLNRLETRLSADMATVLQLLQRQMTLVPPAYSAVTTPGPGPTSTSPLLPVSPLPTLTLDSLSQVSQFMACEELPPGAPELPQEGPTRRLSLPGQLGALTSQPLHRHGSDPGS

Compound	hERG current change (%, negative = inhibition) at 1uM [%]
O=C(CSc1nc2nc(-c3cccs3)cc(C(F)(F)F)c2c(=O)[nH]1)Nc1c(F)c(F)c(F)c(F)c1F	7.2
CC(NC(=O)c1ccco1)C(=O)Nc1nc(-c2ccccn2)cs1 (centres unmarked)	-0.934
Cc1ccc(S(=O)(=O)CC(C)N2CCOCC2)c(S(=O)(=O)CC(C)N2CCOCC2)c1 (centres unmarked)	-4.92
O=C(OCc1ccc(COC(=O)c2ccccn2)cc1)c1ccccn1	18.1
O=C(CCCOc1ccccc1)NCCc1nc2ccccc2[nH]1	13.4
Cc1ccc(NS(=O)(=O)c2ccc(Cl)c(C(=O)Nc3cccc(C(=O)O)c3)c2)cc1	14.2
C=CC#CC1(O)CC(C)N(C)CC1C (centres unmarked)	7.31
CCn1cc(C(=O)NC(=S)Nc2cccc(O)c2)cn1	7.86
COCCNC(=O)C(c1ccc(OC)cc1)N(Cc1ccco1)C(=O)CCC(=O)Nc1ccccn1 (centres unmarked)	18.7
Cc1cccc(OCCn2ccnc2)c1	12.7
CN(Cc1ccco1)C(=O)Cn1nc(-c2ccc(Cl)cc2)ccc1=O	-12.2
O=C(OCc1cc(=O)n2c(n1)sc1ccccc12)c1ccc2c(=O)n3c(nc2c1)CCC3	18.1
O=C(/C(=C/c1ccccc1)n1cncn1)c1ccc(Cl)cc1Cl	1.58
CCCC(=O)N1CCN(c2ccc(NC(=O)C(C)(C)C)cc2Cl)CC1	7.54
CC(c1ccon1)N(C)Cc1cn(Cc2ccccc2)nc1-c1ccc2c(c1)OCO2 (centres unmarked)	4.83
O=C(CSc1ccccn1)N/N=C/C=C/c1ccccc1	-3.19
O=C(COC(=O)C1COc2ccccc2O1)NC(=O)NC1CCCCC1 (centres unmarked)	-0.718
O=C(CN1C(=O)S/C(=C\c2ccccc2F)C1=O)Nc1ccccc1O	17
Cc1c(NC(=O)COC(=O)C2=COCCO2)cccc1[N+](=O)[O-]	14.3
CCCN(c1ccccc1F)S(=O)(=O)c1c[nH]c(C(=O)OC)c1	12.4
CC(C)C(C(=O)O)N1CCS(=O)(=O)CC1 (centres unmarked)	-4.78
CC1SCC(=O)N(CC(=O)NCCc2ccccc2)C1=O (centres unmarked)	-6.6

Compound	hERG current change (%, negative = inhibition) at 1uM [%]
Cc1cccc(NC(=O)CSc2cc(C(=O)c3nccn3C)c3ccccc3n2)c1	13
CC(C)(C)NCC(O)COc1ccccc1C(=O)CCc1ccccc1.Cl (centres unmarked)	-33.4
CCc1c(C)nc2ncnn2c1NCCc1ccc(OC)cc1	7.5
CC(=O)Nc1ccc(N(C(=O)CNC(=O)c2cccs2)C(C(=O)NC(C)(C)C)c2ccccc2)cc1 (centres unmarked)	7.56
O=C(CSc1nc2ccccc2c(=O)n1-c1ccc(F)cc1)NCc1ccco1	2.22
COc1ccccc1N1CCN(C(=O)c2cccc(N3C(=O)C4C5C=CC(C5)C4C3=O)c2)CC1 (centres unmarked)	14
COc1ccc(NC(=O)C2CCN(S(C)(=O)=O)CC2)cc1Cl	1.51
Cc1ccc(C)c(NC(=O)CCC(=O)NNC(=O)COc2cc(C)ccc2C)c1	13.9
COc1ccccc1NC(=O)CSC1=NC(=O)C(NC(C)=O)C(=O)N1 (centres unmarked)	3.79
CCOc1ccc(S(=O)(=O)N2CCCCC2)cc1NC(=O)CN1C(=O)NC(C)(C2CC2)C1=O (centres unmarked)	11.7
Cc1ccc(-n2nnc(-c3cc4ccccc4n3C)n2)cc1	7.06
COC(CNC(=O)c1ccc(N2CCC3(CC2)OCCO3)c([N+](=O)[O-])c1)OC	8.12
O=c1oc(-c2cccs2)nc2sc3c(c12)CCCCC3	-11.6
CCc1cccc(CC)c1NC(=O)c1cccc(NC(=O)c2ccccc2)c1	-7.62
CC(=O)N/C(=C/c1ccccc1)C(=O)NCCO	4.61
O=C(CSc1nc(-c2ccccc2)cc(C(F)(F)F)n1)c1cccc([N+](=O)[O-])c1	17.6
COc1ccc(OC)c(NC2=NCCS2)c1	12
Cc1nc(NC(=O)CCc2ccccc2)sc1C	13.4
CN1CCN(C(=O)c2cc(Cl)cc(Cl)c2NC(=O)c2ccco2)CC1	11.3
Cc1ccc(NC(=S)NCC2CCCO2)cc1C (centres unmarked)	-7.46
O=C(CC1c2ccccc2Oc2ccccc21)Nc1ccccc1F	9.34
CCOC(=O)C1Cc2c([nH]c3ccccc23)CN1.Cl (centres unmarked)	9.08
